In this experiment the target is T1, anti-FGF-8 mouse antibody KM1334.
T1 construct: Mouse antibody of hybridoma KM1334 (FERM BP-5451); H chain is of IgG class (cloned with a mouse Cγ1 probe) and L chain of κ class; also called biotinized KM1334
The experiment can be described thus: ELISA; KM1334 1 µg/ml on plate, fusion protein added, peroxidase anti-human IgG(γ) detection (FIG. 35). The procedure: Binding activities of the FGF-8/Fc fusion protein produced by YB2/0 and the FGF-S/Fc fusion protein produced by CHO described in the item 2 of Example 14, to KM1334 were measured by the ELISA as follows. KM1334 of 1 μg/ml was dispensed at 50 μl/well into a 96-well plate for ELISA (manufactured by Greiner) and allowed to stand at 4° C. overnight for adsorption After washing with PBS, 1% BSA-PBS was added at 100 μl/well and allowed to react at room temperature for 1 hour to block the remaining active group. After washing each well with Tween-PBS, the culture supernatant of the transformant or a purified protein was added at 50 μl/well, followed reaction at room temperature. After the reaction, each well was washed with Tween-PBS, and peroxidase labeled goat-anti-human IgG(γ) antibody solution (manufactured by American Qualex), which was diluted 3000-fold with 1% BSA-PBS, was added at 50 μl/well as the secondary antibody solution, followed by reaction at room temperature for 1 hour. After the reaction, each well was washed with Tween-PBS, and ABTS substrate solution was added at 50 μl/well, followed by reaction. After the color developed sufficiently, 5% SDS solution was added at 50 ed/well to stop the reaction. Then, the absorbance was measured at a wavelength of 415 nm and a reference wavelength of 490.

T1 sequence (VH, as listed by the source limits assumed, chain 1 of 2): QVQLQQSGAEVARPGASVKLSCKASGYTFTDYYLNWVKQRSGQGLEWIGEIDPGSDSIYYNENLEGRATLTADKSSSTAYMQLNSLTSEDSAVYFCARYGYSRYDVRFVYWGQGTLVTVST
T1 sequence (VL, as listed by the source limits assumed, chain 2 of 2): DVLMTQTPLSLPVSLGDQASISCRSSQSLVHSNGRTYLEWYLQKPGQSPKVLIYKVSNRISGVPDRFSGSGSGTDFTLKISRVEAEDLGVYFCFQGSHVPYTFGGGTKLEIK

B1: FGF-8/Fc fusion protein produced by YB2/0 (Fc fusion)
chain: QVTVQSSPNFTQHVREQSLVTDQLSRRLIRTYQLYSRTSGKHVQVLANKRINAMAEDGDPFAKLIVETDTFGSRVRVRGAETGLYICMNKKGKLIAKSNGKGKDCVFTEIVLENNYTALQNAKYEGWYMAFTRKGRPRKGSKTRQHQREVHFMKRLPRGHHTTEQSLRFEFLNYPPFTRSLRGSQRTWAPEPR[not shown - human IgG1 Fc with E283Q (EU numbers)]
notes: also called FGF-8b/Fc fusion protein; FGF8b-Fc fusion protein
With B1, the binding result is “binds”.

B2: FGF-8/Fc fusion protein produced by CHO/DG44 cell (Fc fusion)
chain: QVTVQSSPNFTQHVREQSLVTDQLSRRLIRTYQLYSRTSGKHVQVLANKRINAMAEDGDPFAKLIVETDTFGSRVRVRGAETGLYICMNKKGKLIAKSNGKGKDCVFTEIVLENNYTALQNAKYEGWYMAFTRKGRPRKGSKTRQHQREVHFMKRLPRGHHTTEQSLRFEFLNYPPFTRSLRGSQRTWAPEPR[not shown - human IgG1 Fc with E283Q (EU numbers)]
notes: also called FGF-8/Fc fusion protein derived from CHO; product of transformant KC1179
With B2, the binding result is recorded as “binds”.

The record behind these values is patent US20040259150A1 (Kyowa Kirin, published 2004).
